# Reference: article PMC10726135
# Some of the results follow. At the low end of the ranking the order means little. Measured with an extract: partners may take part in the binding.
# Target: T1, HNF4alpha2 (COS-7 nuclear extract) (UniProt P41235)
# T1 sequence: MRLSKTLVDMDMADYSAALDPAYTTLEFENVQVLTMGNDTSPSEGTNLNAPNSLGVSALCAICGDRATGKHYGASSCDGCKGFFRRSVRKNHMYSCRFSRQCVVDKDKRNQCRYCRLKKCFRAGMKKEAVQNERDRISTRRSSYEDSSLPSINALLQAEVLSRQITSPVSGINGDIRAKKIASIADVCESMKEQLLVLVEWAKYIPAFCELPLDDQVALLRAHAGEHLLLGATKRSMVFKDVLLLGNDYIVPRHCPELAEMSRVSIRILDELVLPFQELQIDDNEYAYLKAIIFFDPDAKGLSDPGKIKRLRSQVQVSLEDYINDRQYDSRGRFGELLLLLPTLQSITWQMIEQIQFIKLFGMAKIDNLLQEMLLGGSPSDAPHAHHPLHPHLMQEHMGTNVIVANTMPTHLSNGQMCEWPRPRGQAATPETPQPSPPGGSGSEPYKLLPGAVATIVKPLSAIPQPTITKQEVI
# Assay: protein-binding microarray
# Settings: COS-7 nuclear extract on double-stranded Agilent 4x180k PBM; binding buffer, salt, pH and temperature not given; high values mean tight binding; double strand, one strand shown; sequences stand for … in …GCCTAGGGAGATTAGAGTATCGGTCGA
row,Sequence,binding signal (log2 normalized intensity)
1,CCTTCAACTGATTAGATAAGGTTCACCCAC,1.98
2,TGAGAGAGCTGCATTGCTTCTGAAGGCTTA,-1.25
3,TCTTCTCAGTGTTTTGGGTCCTACAGAACC,0.349
4,ATTCATTCCCTAAGATTCTGGTCAAAGGTC,7.3
5,GCCAGCTGGCCTCCTGCGGTCCGGACTCTG,2.29
6,AGCTGGAATGAAACGGATGCAAAGGCTGAG,-1.04
7,CTGCATTCCTCAACTCTAGGAGCATGTCAA,-0.667
8,GAGGGAGAGTGGCCTTTGGAATCAAACAGA,2.22
9,TTCATTTAGACATGTTTACTTTTGCAAGGT,2.06
10,CATGCCACACATTGCTGCCATAACTCAAAA,-1
11,GTGAGGCCAAAAGGTGCTACCACGAGAGTA,-0.936
12,CTCCGGCCGGGAAGATGCCAGCCCCGAGAT,3.78
13,ATGCACGGAAGCCTTCCCCGCCCGCAGCCC,4.08
14,AGGATCAAGGGTGGATATTGGGAGGCCCAT,-1.26
15,GGGGCCAGTGTCATTTACAGAATTTCTCAG,-1.14
16,CAGCAAGGCCCAGGGCAAGGACTCTAAAGG,-1.11
17,GTGCATGGAGTGCACTGTGATCTTTAGAAA,2.17
18,CGCTAGAGCAAATACAGCACTCAAATGATC,-1.25
19,GAGCAAACACCAAGGGCAGAGTCCTGGGGA,-1.1
20,CTCAACAAATATTAGCTGTTGGCTCCAGAG,-1.08
21,AGGGGAGATAATGCCAGAAAGGTCTAAAAG,-1.22
22,CAGATCCCTCTGGTGCTGATGTGTTCGCCC,1.69
23,TTCCCAAGTGCTAGCTTGGTCTGAACCTCA,1.34
24,CCCAAGTGGCCATCTTCACGCAATACTAGC,-0.981
25,ATGTCCTCAGTACACTGCCTCCTTCAAGGA,-0.775

row,Sequence,binding signal (log2 normalized intensity)
1,AAAGTCAACGGCTCTGCATATGCCAACAGG,-1.08
2,TATCATCTGATCCTTGTACCTGCGACTGAG,1.59
3,ACTGATAGTCTCCTATCAAGAAAATAGAAG,-1.14
4,GCTTTTGGAAGGACTTCGAATGGTATGCTA,0.461
5,CAGTGAGATTAGGAAGTGTGCACAAGTCCT,-0.978
6,ACTAAAACCTGCTGCAGGAGAGATGGTCAG,0.5
7,AAGGATAAATACTTCTCCTCTTATCTTCAG,-1.06
8,GCTGAAAGCTCCAAGTTTATAATCCTAGCT,-0.946
9,TTGTTGTTAGAACAAAGTCCAAATTCCTAA,3.89
10,CAGTTATCATTTCTACAGGGTCAAGCAAAC,1.83
11,AGGAGTGGACTGTTCAAGACCAAAGGTCAT,5.65
12,TAGGCTTGGAGCCTTGTAAAATGTACATGG,0.436
13,TCCCTGCCCACATCCATTTTCTATCCTACT,-0.91
14,CTGGCTTGGAAAAAGCAGGCAACCAAGGGT,-1.07
15,TATCTTCCAGACCTTCTTAAAAAGTGTTGA,1.12
16,TTTGCCTTAGGCCATTGTCCTTTGGGCTCA,1.06
17,CTAGAACAGCTCCTTTGAAGCTTCGAGCCT,-1.19
18,ATGTCCCTACCACATACAGAATCCTTTACC,-0.474
19,TGCCCAAAAGGACACAGGGTCTGTTTTCAA,-0.994
20,TTTGTTAACAGCTTCTGTTCGCAGACCTGC,-1.01
21,GTCCTCCACAGCGTTTTCCTCCAGCCTGTC,-0.193
22,TCAGAAGGGAGGTAGTCGCCCTCCGTCGTG,-0.634
23,TGTTGTCTAACATTTTTGACCTTCAGCATC,5.15
24,GTAAAGATCTTGAGGCCCACAAGGAATTTC,-1.17
25,CCAGATGAGAGCAGAGGCTGGGGCCCTCTT,-1.07

row,Sequence,binding signal (log2 normalized intensity)
1,GGACTTTGGTCTCATGGGCCTAAACATTCC,4.39
2,TGAAGAGGCCAGGGGCACTCTCTGTTATCA,-1.18
3,TTAGGATGACCTTTAGATTCTTACAGGCAA,3.63
4,ACGGGGGCCGCTCTCCCTCCAGGCCCCAGC,-1.1
5,ACTGTCATGGATGACCTCTTTTAGTAACTG,1.45
6,TGGTGTTGAAGCTCTGGTTCAAACAAGGCC,-0.203
7,ATATCTGCCTCAGTAGTAGTGAAAAATGAA,0.796
8,TTTCATTCCACTGACTTGCAACCTTTGCCC,6.76
9,AATTTCAGAGGGAAGAGGAAGCATCCTATA,-1.24
10,CAAAGGTCATAATTTGATCCAGTGTGCAAA,3.35
11,CCTTTGAGAGTCAACACTGAAATAGCATAC,-1.1
12,TGAGTTCCACAGATAAGGAGGAGACAGACT,-0.871
13,AAGAGATAAGGGTGGCCATCCATCCTGGCG,-1.03
14,AGCAGACCCCTACTGGGGATGGACTTTGGC,6.08
15,ACATTCCATGAGCTGGCCTCACTAAGTCCT,-0.959
16,CTTGGAGGACCTTGGGTTCATTTTACAATG,1.95
17,CAGAATGAACAGCTCTTCTTGCCAGCTGGC,-1.28
18,TATAGAAAAGGAAAGTGAGGCCTGGCCGAG,-0.954
19,GGGAGTGCAGAGAGAGAGGGAGACAACCTT,-1.09
20,CTGACGCAACAGAAAACTCAACTTCTAACT,-1.23
21,GCACAGGGAATGGCTCGTATGAATGTGGGA,0.0605
22,CCCTCAGGGTTTAGGCCTGGGACCTTTCCA,1.33
23,GAGCTTCAGACGCCCTATGGCGTCCGCCTC,-1.2
24,TGCCTCTGAGCTAAGATAACCATCAAATCC,-1.06
25,TCTTTCAGTGTTGACCTTTGAACATTTCTT,8.04

row,Sequence,binding signal (log2 normalized intensity)
1,TTCTGCATGTCATAGTTGACATTCCATCAT,0.607
2,CCCTGCCTGACCTGCCCTTTGTCCCTCCTG,4.51
3,CTGGAATGTTTCAAGTGGCCTGATTTGACA,1.08
4,AGAGCAAGGGTCAAGGGTCATTTGTTTTTA,5.91
5,GCCACTGTGTGTGTGTGTGTGTCTGTGTGT,3.29
6,CACTGCACCTGCCTGAACAAGTCCAGTGAC,-0.89
7,AGGTAAAAAGTCCAGCTGCCAGGGAGACAA,-1.09
8,GAGGTTATTTCACCCCAGCAAACAGGTCCT,1.59
9,AATGATTGCATAATCTGGCTCCAAAGTCTA,2.2
10,CACTTGTGCAGTTTTTCTGCCGAAGATATT,1.23
11,TCTGCTGCCCTCTAGGGTTGCCCAGGGAGA,-0.85
12,CCAGGGGAGGGTAAGAGTCCAACTTCTGCA,2.13
13,AGTTTCAACTTAACCCCAGTTTAGCAATTT,1.96
14,CAAAGGTCATACCTGTCTAGGTGGAGGGAC,2.88
15,ATGACAATAAATTATACCAACTATTTAAGA,-1.18
16,TATAGTTTATCTACCTTTGTACCTTTAGTA,3.8
17,CAAGAGTGACCTTTGCTCCAGTTCCCAATA,6
18,GGCCATCTTCCTCAACATGATGCTTTAGGC,-0.756
19,ATGTCTTTCTGGCTGGAGAGGAGGTTATCT,1.01
20,CTGCCTCCCATCTTGCAGCTGACCCTGGCC,2.95
21,GCCCAGCATGCCCCGCGCCGCGTCCCTTCC,1.17
22,AGCCGTCTGGTAAATTTCTAACACTCCCCA,1.97
23,TGATCCTGAAGACAAAGCACAATCAAAGCA,-1.16
24,CAACTTAACCCCAGTTTAGCAATTTGCTCT,0.322
25,TTATAAACTTGTTTGGGATTAAAGGATCAA,1.03

row,Sequence,binding signal (log2 normalized intensity)
1,TGCTAGACAAGGGAATTACTCTTCTATTAC,-1.31
2,TTGCCTACATAAGGAGCAGCACTTTGACCT,5.13
3,TTTGGGGGTTGGTATTACAAAGCAATCTAC,-0.733
4,TTGCTTAAGCTTTCTGTCTGCAGCTGAACC,1.45
5,GTCATAAATACTCATTATGTTGCTGATAAA,1.18
6,TTGGCCTCTACAGCTACTCCAGCTGGAGAA,-1.09
7,CAAAGGGCACCCTTGATGTGTATTTGTAGC,1.39
8,CAATTCCTTATCTCGTTCTGATAGCAAGGA,1.14
9,ACCTTTCTCCCTTTTCACAGGAGAGGAGAA,-1.03
10,GGTTTTCGGTTTTCAAATGAACCCGGCAGG,1.86
11,GATTACATTGAGTCCACTGAGATCACTTGG,0.579
12,CCCCGGGGCCGCCTTGGAAAACCCGGCGCG,-0.984
13,ACAGGCTTTGAGCATCGCTGGACTCTGCTC,3.94
14,CCACAGTCCTTAAGATCCAAAGGAGTGGTC,0.0718
15,ATTACTGACCCTTGCACTGTAAGATCAAGA,3.13
16,TAAGTTTCTGTCTCACCTGTAAATGTCTCT,0.87
17,GCGGTCCGGACTCTGCCCCACAATTCTTGG,1.97
18,TAATGCGACTTGCCTTGTGTACTCTATCCA,0.778
19,CAGACCCTGGAATTCCAGAAATCTTACTGA,-1.04
20,CACCTTCTTTCTCCCAGAGGTCGATCTGAT,1.55
21,GGTGGAATGGAAAGAATATGAACTTTGGAA,5.42
22,AATATAGGATCATGTTGTCTGCAAACAGAG,0.747
23,CTGAACTTTTGGCTCCCTGGGGTTAAAATG,1.99
24,TTTGAGGATTATGGAGATGGAGATGGCCTG,0.568
25,TACCATTCCCACCCCATTTCACAGCAACCT,1.41

row,Sequence,binding signal (log2 normalized intensity)
1,CCACGCCCGCCGCCAGGTGGCCGAGCAGGA,-1.21
2,TCAAAGAATGCCTGGGTCAAATTGGTGCTT,0.484
3,AAACCAGCAGTATCTTTGTGTCACCAATGG,1.26
4,GCTGCTCAGCTGCCTAGAGGCCTGGGAATG,-1.09
5,TTTTCTAGCTGAGTTGACCTGTGTTGACAG,2.92
6,ACTCAGGAAAGATCAGCTGAAAACTATGCA,-1.09
7,GGAGGGGGCGGTTAAACATTCAGATTCCTG,-1.12
8,ACTTAGGGTTCAAAGGTTGTTGAGCACACA,5.06
9,ATACCTAGCTGTTTGCAGGGACAATGGATG,0.958
10,AGGGTGACCCCTGTGGTACAGGCAGTGACT,1.48
11,TGTCACACACAGACTTGGGTTCAAAGAGCA,3.94
12,TTGGGGTCAAGGCCTTTAAGAAGTAGGTGT,1.33
13,CAGTTTGAAATTAGGCAATATGAGTAGAGC,-0.693
14,ACTCCAACTCAGCCCCCAGCATTATGAAAT,5.14
15,AAAACTCAGATTCCTATGGTAAATGAATAG,-0.582
16,GTAACAGGCCAAAGGGCAAGAACAATCTTG,2.06
17,CTTTGAAGCCCAGAACACTCTACCCCCTCC,4.78
18,GTCACGTGGCTGCTGAGAGGATTAAAAGAT,-0.725
19,TCAGTCCAATTCACAGAACTCCCTAAGTGG,-1.05
20,CGCATTTCTGCTTCTTCTCATTCTTGGAAT,1.39
